Test results as given in the supplement of paper PMC9446081.
Out of some 39,000 compounds screened, about 220 (0.56%) showed activity. The list shows a part of the results.

Test system: Escherichia coli K-12 BW25113
Assay: relative growth (OD600 normalised to plate interquartile mean) (fraction); higher = less growth inhibition, active = 0.2 or less
Settings: 50 µM; LB; incubation time: overnight (16-24 h)
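Also: static incubation at 37 °C against the wild-type strain, values averaged over two biological replicates.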

| SMILES | relative growth |
| --- | --- |
| C[C@@H]1CN([C@@H](C)CO)C(=O)c2cc(NC(=O)Nc3cccc4ccccc34)ccc2O[C@@H]1CN(C)C(=O)Nc1ccc(C(F)(F)F)cc1 | inactive: 1.01 |
| CCS(=O)(=O)N1C[C@]2(C1)CN([C@@H](CO)c1c2c2ccc(cc2n1C)OC)C(=O)c1ccc(cc1)F | inactive: 1.06 |
| COc1ccc(NC(=O)N2C[C@H](O)COC[C@H]3O[C@@H](CC(=O)NCc4ccccc4OC)CC[C@@H]32)cc1 | inactive: 0.994 |
| CCCNC(=O)N(C)C[C@@H]1Oc2cc(C#Cc3ccccn3)ccc2S(=O)(=O)N([C@H](C)CO)C[C@@H]1C | inactive: 0.986 |
| C[C@H]1CN([C@@H](C)CO)C(=O)c2cccc(NS(=O)(=O)c3cn(C)cn3)c2O[C@H]1CN(C)CC1CC1 | inactive: 1 |
| Cl.OC(CNCC(O)C1CCc2cc(F)ccc2O1)C1CCc2cc(F)ccc2O1 (centres undefined) | inactive: 1.06 |
| CO[C@H]1CN(C)C(=O)c2cc(NC(=O)Nc3ccccc3)ccc2OC[C@H](C)N(C(=O)CN(C)C)C[C@H]1C | inactive: 1.01 |
| CC(=O)C1CCC2C3CC(C)C4=CC(=O)CCC4(C)C3C(O)CC12C (centres undefined) | inactive: 0.935 |
| COC(=O)c1c(C#N)c(N)nc2c1CCC2 | inactive: 0.967 |
| C=CC[C@@H](CC(=O)NCCO)C(=O)N[C@@H](COC(=O)[C@H](CC=C)CC(=O)OC(C)(C)C)Cc1ccccc1 | inactive: 0.968 |
| C[C@@H]1CN([C@@H](C)CO)C(=O)c2cc(C#Cc3ccccc3F)cnc2O[C@@H]1CN(C)C(=O)C1CCOCC1 | inactive: 1.02 |
| COc1ccc(CNC(=O)C[C@@H]2CC[C@@H]3[C@H](COc4ccc(NC(=O)C5CC5)cc4C(=O)N3C)O2)cc1 | inactive: 1.01 |
| Cc1ccc(S(=O)(=O)N(C)C[C@H]2OCCCC[C@@H](C)Oc3ccc(NC(=O)Nc4ccc(F)cc4)cc3C(=O)N([C@H](C)CO)C[C@H]2C)cc1 | inactive: 1.06 |
| C[C@@H]1CN([C@H](C)CO)C(=O)Cc2cc(NS(C)(=O)=O)ccc2O[C@H]1CN(C)C(=O)Nc1ccc(C(F)(F)F)cc1 | inactive: 0.926 |
| O=C1NCCc2c(O)cccc21 | inactive: 1.02 |
| C#CC1(O)CCC2C3CCC4=CCCCC4C3C(=C)CC21CC (centres undefined) | inactive: 0.991 |
| COCC#Cc1ccc2c(c1)O[C@H](CN(C)C(=O)Nc1ccc(OC)cc1)[C@@H](C)CN([C@@H](C)CO)S2(=O)=O | inactive: 1.02 |
| C[C@H]1CN([C@@H](C)CO)C(=O)Cc2cc(NC(=O)NC3CCCCC3)ccc2O[C@H]1CN(C)Cc1ccc(C(F)(F)F)cc1 | inactive: 0.982 |
| COc1cc(/C=C/C(=O)C2=C(NCCc3ccccc3)S[C@H](c3ccc(O)c(OC)c3)CC2=O)ccc1O | inactive: 1.04 |
| Cc1ccc(-c2cnc3c(c2)C(=O)N([C@@H](C)CO)C[C@@H](C)[C@@H](CN(C)C(=O)Cc2cccnc2)O3)cc1 | inactive: 0.973 |
| CCC(=O)N1C[C@]2(CN(C2)S(=O)(=O)C)c2c(n(c3cc(ccc23)OC)C)[C@H]1CO | inactive: 0.994 |
| C[C@@H]1CCCCO[C@@H](CN(C)C(=O)CCCN(C)C)[C@@H](C)CN([C@H](C)CO)C(=O)c2cc(NC(=O)Nc3ccc(F)cc3)ccc2O1 | inactive: 0.986 |

| SMILES | relative growth |
| --- | --- |
| O=C(C[C@H]1CC[C@@H]2[C@H](COC[C@@H](O)CN2C(=O)Nc2ccc3c(c2)OCO3)O1)N1CCN(c2ccccc2)CC1 | inactive: 1.03 |
| CO[C@H]1C[C@@H](O[C@@H]2/C(C)=C/C[C@@H]3C[C@@H](C[C@]4(CC[C@H](C)[C@@H](C5CCCCC5)O4)O3)OC(=O)[C@@H]3C=C(C)/C(=N/O)[C@H]4OC/C(=C\C=C\[C@@H]2C)[C@]43O)O[C@@H](C)[C@@H]1O | inactive: 0.946 |
| CC(=O)N1[C@H](Cn2cncn2)C[C@H]2CN(S(C)(=O)=O)CC[C@H]21 | inactive: 0.956 |
| Cc1noc(C)c1S(=O)(=O)Nc1ccc2c(c1)CC(=O)N([C@H](C)CO)C[C@H](C)[C@H](CN(C)S(=O)(=O)c1ccc(Cl)cc1)O2 | inactive: 0.992 |
| C[C@@H]1CN([C@H](C)CO)C(=O)c2cccc(NS(=O)(=O)c3cccs3)c2O[C@@H]1CN(C)S(=O)(=O)c1ccccc1 | inactive: 0.994 |
| O=C1CN(S(=O)(=O)Cc2ccccc2)C[C@H]2[C@H](c3ccc(C#Cc4cccc(F)c4)cc3)[C@H](CO)N12 | inactive: 0.992 |
| CCCC(=O)OC1(C(=O)CO)CCC2C3CCC4=CC(=O)CCC4(C)C3C(O)CC21C (centres undefined) | inactive: 1.08 |
| C[C@H](CO)N1C[C@H](C)[C@H](CN(C)Cc2ccccc2)Oc2ccc(NC(=O)Nc3ccc(C(F)(F)F)cc3)cc2C1=O | inactive: 0.982 |
| Cc1ccc(S(=O)(=O)Nc2ccc3c(c2)CC(=O)N([C@@H](C)CO)C[C@H](C)[C@@H](CN(C)C(=O)Nc2cccc4ccccc24)O3)cc1 | inactive: 1.01 |
| CC(C)NC(=O)N(C)C[C@@H]1Oc2c(NC(=O)Nc3ccc4c(c3)OCO4)cccc2C(=O)N([C@@H](C)CO)C[C@@H]1C | inactive: 0.998 |
| Cc1noc(C)c1S(=O)(=O)Nc1ccc2c(c1)C(=O)N([C@H](C)CO)C[C@@H](C)[C@@H](CN(C)Cc1ccncc1)O2 | inactive: 0.974 |
| C[C@@H]1CN([C@H](C)CO)C(=O)c2cc(NC(=O)Nc3ccccc3)ccc2O[C@@H]1CN(C)CC1CCCCC1 | inactive: 0.983 |
| O=C(Nc1ncc(SCCN2CCCC2)s1)[C@]1(c2ccc(S(=O)(=O)C3CC3)cc2)C[C@H]1C1CCCCC1 | inactive: 0.98 |
| C[C@@H]1CN([C@H](C)CO)C(=O)Cc2cc(NS(=O)(=O)c3cn(C)cn3)ccc2O[C@@H]1CN(C)Cc1ccccc1 | inactive: 1.03 |
| C[C@@H](O)C#Cc1ccc2c(c1)O[C@H](CN(C)C(=O)Cc1ccccn1)[C@@H](C)CN([C@@H](C)CO)S2(=O)=O | inactive: 1 |
| CC(C)NC(=O)N(C)C[C@@H]1OCCCC[C@@H](C)Oc2ccc(NC(=O)Nc3ccc(C(F)(F)F)cc3)cc2C(=O)N([C@@H](C)CO)C[C@H]1C | inactive: 0.967 |
| O=C(O)CCCCN(CCc1ccccc1OCc1ccc(CCc2ccccc2)cc1)Cc1ccc(C(=O)O)cc1 | inactive: 1.04 |
| FC(F)(F)c1ccccc1/N=C1\CCCc2ccccc21 | inactive: 1.02 |
| COCC(=O)N[C@@H]1C[C@H](CO)[C@H](O)C1 | inactive: 0.974 |
| Cc1noc(C)c1S(=O)(=O)Nc1ccc2c(c1)C(=O)N([C@H](C)CO)C[C@H](C)[C@H](CN(C)S(=O)(=O)c1ccc(Cl)cc1)O2 | inactive: 1.03 |
| C[C@H](CO)N1C[C@H](C)[C@H](CN(C)C(=O)Nc2ccccc2)Oc2ccc(NC(=O)C3CC3)cc2CC1=O | inactive: 0.985 |
| CCCC1CCC(c2ccc(OC(=O)c3cccnc3)cc2)CC1 (centres undefined) | inactive: 0.881 |

| SMILES | relative growth |
| --- | --- |
| C[C@@H]1CN([C@H](C)CO)C(=O)Cc2cc(NS(=O)(=O)c3ccc(Cl)cc3)ccc2O[C@@H]1CN(C)S(=O)(=O)c1cn(C)cn1 | inactive: 1.01 |
| O=C1C=C(O)C(=O)c2ccccc21 | inactive: 0.891 |
| O=C(C1CCC1)N1CCOCC1 | inactive: 1.04 |
| C=CC[C@@H](CC(=O)N(CCO)Cc1ccccc1)C(=O)N[C@H](COC(=O)[C@@H](CC=C)Cc1ccc(F)cc1)c1ccccc1 | inactive: 0.916 |
| Cc1cc(C)nc(SCC(=O)NN)n1 | inactive: 0.997 |
| COCC#Cc1ccc2c(c1)O[C@H](CN(C)S(=O)(=O)c1cccc(OC)c1)[C@@H](C)CN([C@H](C)CO)S2(=O)=O | inactive: 1.02 |
| COc1ccc(CNC(=O)C[C@@H]2C[C@H]3c4cc(NS(=O)(=O)c5ccc(F)cc5)ccc4O[C@H]3[C@@H](CO)O2)cc1 | inactive: 0.99 |
| CN1CC(=O)NC1=O | inactive: 1 |
| Cc1ccc(S(=O)(=O)N(C)C[C@@H]2Oc3ccc(NC(=O)Nc4cccc5ccccc45)cc3CC(=O)N([C@@H](C)CO)C[C@H]2C)cc1 | inactive: 1.04 |
| C[C@H](CO)N1C[C@H](C)[C@H](CN(C)C(=O)CN2CCOCC2)Oc2cc(C#Cc3cccc(F)c3)ccc2S1(=O)=O | inactive: 0.913 |
| CCS(=O)(=O)Nc1ccc2c(c1)C(=O)N(C)[C@H]1CC[C@H](CC(=O)NCc3ccccc3F)O[C@H]1CO2 | inactive: 0.986 |
| C[C@H](CO)N1C[C@H](C)[C@@H](CN(C)C(=O)Nc2ccc3c(c2)OCO3)Oc2c(NS(C)(=O)=O)cccc2C1=O | inactive: 0.981 |
| COCC(=O)Nc1ccc2c(c1)C(=O)N(C)[C@H]1CC[C@H](CC(=O)N3CCc4ccccc4C3)O[C@@H]1CO2 | inactive: 1.01 |
| COc1ccc(S(=O)(=O)N(C)C[C@@H]2Oc3ccc(NS(=O)(=O)c4c(C)noc4C)cc3CC(=O)N([C@H](C)CO)C[C@H]2C)cc1 | inactive: 1.01 |
| COc1ccc(CN(C)C[C@@H]2OCCCC[C@H](C)Oc3ccc(NS(=O)(=O)c4ccc(C)cc4)cc3C(=O)N([C@@H](C)CO)C[C@@H]2C)cc1 | inactive: 0.979 |
| C[C@@H]1CN([C@@H](C)CO)C(=O)c2c(c3ccccc3n2C)-c2ccccc2CO[C@@H]1CN(C)C(=O)Nc1cccc(Cl)c1Cl | inactive: 1.02 |
| Cc1ccc(S(=O)(=O)N[C@@H](Cc2ccccc2)C(=O)NCCCn2cc(-c3cccc(/C=C/C(=O)NO)c3)nn2)cc1 | inactive: 1.01 |
| COc1ccccc1C#Cc1cnc2c(c1)C(=O)N([C@@H](C)CO)C[C@@H](C)[C@@H](CN(C)S(=O)(=O)c1cn(C)cn1)O2 | inactive: 1.01 |
| CC(=O)NCCCS(=O)(=O)O | inactive: 0.983 |
| Cc1ccc(-c2ccc3c(c2)O[C@@H](CN(C)C(=O)CN(C)C)[C@H](C)CN([C@@H](C)CO)S3(=O)=O)cc1 | inactive: 1.01 |
